# Structures can show the parent of a compound that is named as a salt. The list shows a part of the results. Many values rest on one well or one pass, so single values are uncertain.
# Tested on: Ov4Carbo
# Assay: log2 surviving fraction (library drug vs vehicle, or drug + carboplatin vs carboplatin alone; relative to plate median); ovarian cancer lines: OVCAR4 is platinum-sensitive and Ov4Carbo platinum-resistant; higher = more cell survival
# Conditions: library drug concentration 10 µM; 7 days; carboplatin co-treatment 5 µM
row,SMILES,log2 surviving fraction
1,CC1CC(OC(=O)C(O)c2ccccc2)CC(C)(C)C1 (stereo unspecified) [Cyclandelate],-0.776
2,CCC(=O)OCC(=O)[C@@]1(OC(=O)CC)[C@@H](C)C[C@H]2[C@@H]3CCC4=CC(=O)C=C[C@]4(C)[C@@]3(F)[C@@H](O)C[C@@]21C [Betamethasone Dipropionate (Diprolene)],0.501
3,COC(c1ccccc1)(c1ccccc1)[C@H](Oc1nc(C)cc(C)n1)C(=O)O [Ambrisentan],0.625
4,Cc1cnc(C(=O)O)c[n+]1[O-] [Acipimox],0.636
5,CCN(CC)C(=O)/C(C#N)=C/c1cc(O)c(O)c([N+](=O)[O-])c1 [Entacapone],1.21
6,CC[C@H]1OC(=O)[C@H](C)[C@@H](O[C@H]2C[C@@](C)(OC)[C@@H](O)[C@H](C)O2)[C@H](C)[C@@H](O[C@@H]2O[C@H](C)C[C@H](N(C)C)[C@H]2O)[C@](C)(O)C[C@@H](C)/C(=N\OCOCCOC)[C@H](C)[C@@H](O)[C@]1(C)O [Roxithromycin (Roxl-150)],0.255
7,CN(C)CCCN1c2ccccc2CCc2ccc(Cl)cc21 [Clomipramine hydrochloride (Anafranil)],-2.11
8,COc1ncnc(NS(=O)(=O)c2ccc(N)cc2)c1OC [Sulfadoxine (Sulphadoxine)],-0.0721
9,CC(N)C12CC3CC(CC(C3)C1)C2 (stereo unspecified) [Rimantadine (Flumadine)],-0.431
10,COC(=O)C1=CO[C@@H](O)[C@@H]2C(CO)=CC[C@H]12 [Genipin],1.03
11,O=c1ccn([C@@H]2O[C@H](CO)[C@@H](O)[C@H]2O)c(=O)[nH]1 [Uridine],-0.226
12,CO[C@H]1O[C@@H]2O[C@@]3(C)CC[C@H]4[C@H](C)CC[C@@H]([C@H]1C)[C@@]24OO3 [Artemether (SM-224)],-0.501
13,CCOc1nc2cccc(C(=O)O)c2n1Cc1ccc(-c2ccccc2-c2nnn[nH]2)cc1 [Candesartan (Atacand)],0.35
14,CN1C(=O)CCS(=O)(=O)C1c1ccc(Cl)cc1 (stereo unspecified) [Chlormezanone (Trancopal)],1.18
15,CN1CC2c3ccccc3Oc3ccc(Cl)cc3C2C1 (stereo unspecified) [Asenapine],-0.541
16,Nc1ccn([C@@H]2O[C@H](CO)[C@@H](O)[C@H]2O)c(=O)n1 [Cytidine],0.608

# — the supplement of paper PMC8047034
